Reference: PubChem BioAssay AID1030 (National Center for Advancing Translational Sciences (NCATS), 2008)
The whole screen tested about 220,000 compounds, of which about 16,000 (7.3%) were called active. Inconclusive means that the source gave no clear call. Such entries were picked first, then a sample of the others. Calls come from the whole dose curve; as a rule, active = well fitted inhibition curve with a large enough effect (not every such curve was filed as active); inconclusive = small, poorly fitted or top-dose-only effect, or another doubt; inactive = no such curve, though single readings can be large or run the other way. No potency is given beside an inconclusive call; the fits are too rough. Where a structure was tested more than once in an assay, its records may differ in their call.

The compounds below were run against Aldehyde dehydrogenase 1A1 (Homo sapiens) (UniProt P00352) (assay: qHTS Assay for Inhibitors of Aldehyde Dehydrogenase 1 (ALDH1A1)). Conditions: Purified ALDH1A1, NADH fluorescence, propionaldehyde substrate; series mostly up to 75.3 µM.
Potency is the fitted concentration of half-maximal effect; tags give direction and shape of the fitted curve.

Sequence of UniProt P00352 (P00352 whole entry, looked up): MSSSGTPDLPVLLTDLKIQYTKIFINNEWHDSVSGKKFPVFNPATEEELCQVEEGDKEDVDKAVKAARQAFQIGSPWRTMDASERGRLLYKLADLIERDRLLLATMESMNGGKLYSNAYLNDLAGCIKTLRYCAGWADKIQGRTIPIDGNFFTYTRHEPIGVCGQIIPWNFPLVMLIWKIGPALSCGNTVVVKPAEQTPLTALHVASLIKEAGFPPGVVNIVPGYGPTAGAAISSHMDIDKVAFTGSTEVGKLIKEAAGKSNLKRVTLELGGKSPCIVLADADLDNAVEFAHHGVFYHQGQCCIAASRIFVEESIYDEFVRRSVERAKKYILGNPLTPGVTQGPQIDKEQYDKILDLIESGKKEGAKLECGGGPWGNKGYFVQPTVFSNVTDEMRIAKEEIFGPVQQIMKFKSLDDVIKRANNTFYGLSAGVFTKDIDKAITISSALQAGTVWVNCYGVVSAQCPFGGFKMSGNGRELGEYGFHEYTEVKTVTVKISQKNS

Row | SMILES | Potency
1 | COc1ccc(NC(=O)c2ccc(NCC3CCCO3)c([N+](=O)[O-])c2)cc1 (centres undefined) | inconclusive [inhibitor, single point]
2 | Cc1cccc(-n2nc3c(c2NC(=O)c2ccco2)CSC3)c1C | inconclusive [inhibitor, single point]
3 | O=C(CN1CCN(Cc2ccc(Cl)cc2)C1=O)NCCN1CCCC1 | inactive
4 | N#Cc1ccc(CSc2nc(-c3cccs3)c3c(c2C(=O)O)CCCC3)cc1 | inconclusive [inhibitor, partial curve]
5 | Cc1ccc(S(=O)(=O)N/N=C2/CC(c3ccccc3)Oc3ccccc32)cc1 (centres undefined) | inconclusive [inhibitor, single point]
6 | Cc1ccc(C(=O)N2CCN(c3ncnc4c(C)csc34)CC2)cc1 | inconclusive [inhibitor, partial curve]
7 | Cc1[nH]c(=S)sc1Cc1ccc(F)cc1 | inconclusive [inhibitor, full curve]
8 | Cc1ccc(CNC(=O)c2ccccc2CCc2ccccc2)cc1 | inconclusive [inhibitor, partial curve]
9 | O=C(c1ccccc1)c1ccc(OCCCN2CCCC2)cc1 | inactive
10 | NC(=O)c1ccc(-n2c(CCC(=O)O)ccc2-c2cccs2)cc1 | active: 3.16 µM
11 | COc1ccc(OCCC(=O)NC2CCCCC2)cc1 | inactive
12 | Cc1ccc2cc(CCNC(=O)CC(C)C)c(=O)[nH]c2c1 | inactive
13 | CCN(CC)C(=O)c1sc2nc(-c3ccccc3)ccc2c1N | inconclusive [inhibitor, partial curve]
14 | N[C@H](C(=O)N[C@@H]1C(=O)N2C(C(=O)O)=C(Cl)CS[C@@H]12)c1ccccc1 | active: 11.2 µM
15 | Cc1nnc(SCC(=O)N(C(C)C)C(C)C)nc1C | inconclusive [inhibitor, single point]
16 | COc1cccc(-c2ccc3ncnc(NCCc4c[nH]c5ccc(OC)cc45)c3c2)c1 | inactive
17 | CCCn1c(C(=O)OC)cc2c1ccn2-c1ccc(F)cc1 | inconclusive [inhibitor, single point]
18 | CC1=NOC(=O)/C1=C\c1ccc(-c2ccc(Cl)c(C(=O)O)c2)o1 | active: 0.891 µM
19 | O=C(CSc1nnc2c(Cl)cc(C(F)(F)F)cn12)Nc1ccc2c(c1)OCO2 | inconclusive [inhibitor, partial curve]
20 | COC(=O)C1=C(C(=O)OC)C2C(C)=CC(C)=CN2C(C(=O)OC)=C1C(=O)OC (centres undefined) | inconclusive [inhibitor, single point]
21 | COc1ccc(CNC(=O)C2CC(=O)N(c3ccc(OCC(=O)N4CCCCC4)cc3)C2)cc1 (centres undefined) | inconclusive [inhibitor, single point]
22 | Cc1cc2c(n1-c1ccc(Br)cc1)CC(C)(C)CC2=O | inactive
23 | COc1cccc(C(=O)Nc2ccc(N(C)C)cc2)c1OC | inconclusive [inhibitor, single point]
24 | Clc1ccccc1-c1nnc2sc(CCc3ccccc3)nn12 | active: 3.98 µM
25 | O=C(Cn1cnc2ccccc2c1=O)c1c[nH]c2ccccc12 | inconclusive [inhibitor, single point]

Row | SMILES | Potency
26 | CCOC(=O)Cn1nnnc1C(C(C)C)N(Cc1cccs1)Cc1cc2cc(C)ccc2[nH]c1=O (centres undefined) | inconclusive [inhibitor, partial curve]
27 | Cc1nnc(NC(=O)CSc2ccc(-c3ccc(Cl)cc3)nn2)s1 | inactive
28 | CC12CN3CC(C)(CN(C1)C3c1ccc(F)cc1)C2 (centres undefined) | inactive
29 | CNC(=S)N/N=C/c1ccc2c(c1)OCCO2 | inconclusive [inhibitor, single point]
30 | NS(=O)(=O)c1ccc(CCNC(=O)Nc2ccc(Cl)c(Cl)c2)cc1 | inactive
31 | Cc1c(NC(=O)Nc2ccccc2Cl)c(=O)n(-c2ccccc2)n1C | inconclusive [inhibitor, single point]
32 | O=C1C2C3C=CC(C4CC34)C2C(=O)N1/N=C/c1ccc(-c2ccc(Cl)cc2[N+](=O)[O-])o1 (centres undefined) | inconclusive [inhibitor, partial curve]
33 | CC(=C1C(=O)c2ccccc2C1=O)N1CCc2ccccc2C1 | active: 8.91 µM
34 | CCCS(=O)(=O)c1nc(S(=O)(=O)c2ccc(C)cc2)c(NCCCN(C)C)s1 | inconclusive [inhibitor, single point]
35 | COCCn1nnnc1C(c1ccc(OC)cc1OC)N1CCN(c2ccccc2F)CC1 (centres undefined) | inactive
36 | CC(=O)NCCNc1ncnc2ccc(-c3ccccc3C)cc12 | inconclusive [inhibitor, single point]
37 | C=CCNC(=O)c1ccccc1NC(=O)c1ccccc1N(C)S(C)(=O)=O | inactive
38 | COc1ccc(-c2csc(NC(=S)NC(=O)/C=C/c3ccco3)n2)cc1OC | inactive
39 | CCN(CC)S(=O)(=O)c1ccc(NCc2ccccc2)nc1 | inconclusive [inhibitor, single point]
40 | O=C(CCS(=O)(=O)c1ccccc1)Nc1ccccc1F | inactive
41 | Cc1ccc(S(=O)(=O)N2CCCN(S(=O)(=O)c3ccc4c(c3)OCCO4)CC2)cc1 | inconclusive [inhibitor, partial curve]
42 | COc1ccc(-c2n(CC(=O)OC3CC(C)CCC3C(C)C)c3ccccc3[n+]2C)cc1 (centres undefined) | active: 6.31 µM
43 | Cc1ccc(S(=O)(=O)N2CCC(C(=O)N[C@@H](Cc3ccccc3)C(=O)O)CC2)cc1 | inconclusive [inhibitor, single point]
44 | O=S(=O)(Nc1ccc(Cl)cc1)c1ccc(N2CCOCC2)c(NC(=S)NCCN2CCOCC2)c1 | active: 8.91 µM
45 | O=C(NCc1ccco1)c1ccc(S(=O)(=O)N2CCCc3ccccc32)cc1 | active: 14.1 µM
46 | COc1ccc(C(=O)NCc2ccc3c(c2)cc(C)n3C)cc1 | inconclusive [inhibitor, single point]
47 | COc1ccc(N2C(=O)C3CCCN3C2c2cccc(C)c2)cc1Cl (centres undefined) | inconclusive [inhibitor, single point]
48 | CCOc1ccc2nc(SCc3ccc(CC(=O)O)cc3)c(C#N)cc2c1 | inactive
49 | Cc1nc(-c2cccc(NS(=O)(=O)c3ccccc3)c2)cs1 | active: 14.1 µM
50 | CCCCOC(=O)/C(=C/c1cn(C)c2ccccc12)NC(=O)c1ccc(OC)cc1 | inactive

Row | SMILES | Potency
51 | COc1ccc(NCc2ccccc2[N+](=O)[O-])cc1OC | inconclusive [inhibitor, single point]
52 | O=C(CN(Cc1cccs1)C(=O)CCC(=O)Nc1ccccn1)NCc1ccccc1 | inconclusive [inhibitor, single point]
53 | CCCOC(=O)c1c(NC(=O)/C=C/c2cnn(C)c2C)sc(C(=O)OCC)c1C | inconclusive [inhibitor, partial curve]
54 | O=C(NCCCN1CCCC1=O)c1ccccc1NS(=O)(=O)c1ccc(F)cc1 | inconclusive [inhibitor, partial curve]
55 | CC(C)N(C(=O)Cn1cc(SCC(=O)N2CCCC2)c2ccccc21)C(C)C | inactive
56 | c1ccc(CCSc2nccn2-c2ccccc2)cc1 | inactive
57 | Cc1ccc(C)c(Cn2c(=O)c3c(nc4n3CCN4Cc3ccco3)n(C)c2=O)c1 | inconclusive [inhibitor, full curve, poor fit]
58 | CCOC(=O)c1ccc(NC2Nc3cc(C)nn3S2)cc1 (centres undefined) | active: 12.6 µM
59 | COc1ccc(NC(C#N)c2ccccc2OCc2ccccc2)cc1 (centres undefined) | inconclusive [inhibitor, single point]
60 | O=C(/C=C/c1cnc2ccccc2n1)NC12CC3CC(CC(C3)C1)C2 | inconclusive [inhibitor, single point]
61 | Cc1c(Cl)c(C(=O)N2CCCc3ccccc32)nn1C | inconclusive [inhibitor, partial curve]
62 | CCOc1ccc(-n2cnnn2)cc1S(=O)(=O)NCc1ccccc1 | inconclusive [inhibitor, partial curve]
63 | O=[N+]([O-])c1cc(S(=O)(=O)NCCN2CCOCC2)ccc1Sc1nnnn1-c1ccccc1 | active: 14.1 µM
64 | O=C(CSCc1ccc(F)cc1)NCc1ccco1 | inconclusive [inhibitor, single point]
65 | CC(C)OCCCn1c(-c2ccc(Br)cc2)c[nH]c1=S | inconclusive [inhibitor, partial curve]
66 | CSc1nc(C)c2cc(C)oc2n1 | inactive
67 | COc1ccc(S(=O)(=O)NC2CC3CCC2C3)cc1Cl (centres undefined) | inconclusive [inhibitor, partial curve]
68 | O=C(CSc1nnc(Cc2ccccc2)o1)Nc1ccc(Br)cn1 | inactive
69 | COc1ccc(N=Cc2[nH]c3ccccc3c2O)cc1 | active: 12.6 µM
70 | COc1ccc(C)cc1NC(=O)c1cc2c(=O)n3ccccc3nc2n1C | inconclusive [inhibitor, single point]
71 | CCc1ccc(NC(=O)CSc2nc3cc(C(=O)OC)ccc3c(=O)n2CC2CCCO2)cc1 (centres undefined) | inconclusive [inhibitor, partial curve]
72 | Oc1ccc(NCc2ccccc2OCc2ccccc2)cc1 | active: 5.62 µM
73 | COCCN(CC(=O)Nc1ccc(F)cc1)S(=O)(=O)c1ccc(S(=O)(=O)N2CCCC2)cc1 | inconclusive [inhibitor, single point]
74 | Cn1cnnc1SC1c2cccc3cccc(c23)C1NS(=O)(=O)c1ccccc1 (centres undefined) | inconclusive [inhibitor, single point]
